Each structure is given as a SMILES string. Screen size: about 310,000 compounds; about 14,000 (4.5%) showed an effect of 50% or more. Effects have a minus sign here. The list shows a part of the results.
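Further: peak tail current of the secondary pulse compared with the same well before compound.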

For this test, the target named is human ether-à-go-go-related gene (hERG) potassium channel (human, UniProt Q12809). Kind of test: primary screen, population patch clamp on CHO cells stably expressing hERG.
Chain of human ether-à-go-go-related gene (hERG) potassium channel (Q12809 whole entry, looked up): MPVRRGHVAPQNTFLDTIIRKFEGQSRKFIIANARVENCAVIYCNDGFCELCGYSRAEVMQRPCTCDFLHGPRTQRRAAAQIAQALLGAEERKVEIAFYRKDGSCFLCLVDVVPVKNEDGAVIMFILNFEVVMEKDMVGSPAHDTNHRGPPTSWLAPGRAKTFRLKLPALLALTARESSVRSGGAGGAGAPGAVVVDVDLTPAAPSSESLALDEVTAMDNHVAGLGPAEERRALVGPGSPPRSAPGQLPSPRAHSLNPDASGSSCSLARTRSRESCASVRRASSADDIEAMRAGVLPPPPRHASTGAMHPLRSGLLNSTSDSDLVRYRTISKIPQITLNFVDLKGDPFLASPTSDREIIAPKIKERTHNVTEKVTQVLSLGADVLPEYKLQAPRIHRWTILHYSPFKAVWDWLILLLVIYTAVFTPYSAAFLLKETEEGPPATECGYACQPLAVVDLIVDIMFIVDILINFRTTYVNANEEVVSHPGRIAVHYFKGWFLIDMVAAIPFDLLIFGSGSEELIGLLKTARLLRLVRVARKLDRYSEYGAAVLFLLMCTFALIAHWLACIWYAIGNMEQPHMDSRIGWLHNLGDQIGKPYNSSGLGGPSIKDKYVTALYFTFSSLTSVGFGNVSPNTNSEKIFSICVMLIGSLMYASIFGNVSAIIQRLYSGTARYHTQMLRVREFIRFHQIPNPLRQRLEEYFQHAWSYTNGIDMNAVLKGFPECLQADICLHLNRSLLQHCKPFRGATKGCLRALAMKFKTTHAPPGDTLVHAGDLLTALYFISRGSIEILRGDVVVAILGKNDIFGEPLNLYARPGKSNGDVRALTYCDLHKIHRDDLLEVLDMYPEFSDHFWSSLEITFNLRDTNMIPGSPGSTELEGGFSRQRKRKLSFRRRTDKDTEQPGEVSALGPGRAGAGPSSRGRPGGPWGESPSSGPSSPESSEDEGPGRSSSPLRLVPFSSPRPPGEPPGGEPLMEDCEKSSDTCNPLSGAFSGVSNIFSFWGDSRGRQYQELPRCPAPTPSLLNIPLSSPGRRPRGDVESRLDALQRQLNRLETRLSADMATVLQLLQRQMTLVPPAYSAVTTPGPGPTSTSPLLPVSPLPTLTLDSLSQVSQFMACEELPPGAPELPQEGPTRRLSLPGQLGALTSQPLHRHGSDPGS
In the case of `Cc1ccccc1C(=O)Nc1ccccc1C(=O)N1CCC(C)CC1`, the “hERG current change (%, negative = inhibition) at 10uM” value turned out to be 9.34%.

On to `CCOCCCNC(=S)N(Cc1ccco1)Cc1cc2cc3c(cc2[nH]c1=O)OCCO3`, for which the “hERG current change (%, negative = inhibition) at 10uM” value is -11.7%. The same measure for `COc1ccc(OCc2ccc(-c3nc4ccccc4c(=O)n3N)o2)cc1`: -23.5%.

`CCOC(=O)N1CCN(C(=O)COC(=O)C2CCN(S(=O)(=O)c3c(C)c(C)cc(C)c3C)CC2)CC1`: the “hERG current change (%, negative = inhibition) at 10uM” value is reported as -51.9%. On to `COC(=O)c1sc2nc(SCC(=O)N(C)c3ccccc3)n(N)c(=O)c2c1C`, for which the “hERG current change (%, negative = inhibition) at 10uM” value is recorded as 27.4%. Regarding `Cc1cccc(N2C(=O)CC(Sc3nc(C)cc(C)n3)C2=O)c1` (centres unmarked), the “hERG current change (%, negative = inhibition) at 10uM” value amounted to 13.5%. The same measure for `COc1ccc(CC(=O)Nc2cccc(/C(C)=N/NC(=O)c3cccc([N+](=O)[O-])c3)c2)cc1`: -13.2%; for `COc1ccc(NC(=O)C(C)SCc2ccccc2)cc1OC` (centres unmarked): -1.56%. Consider `COc1ccc(C(=O)NNC(=O)c2ccc3ccccc3c2O)cc1`, for which the “hERG current change (%, negative = inhibition) at 10uM” value worked out at 19.6%. For `O=C(NC(=S)NCCN1CCOCC1)c1ccccc1` the value was -8.04%. The same measure for `COc1cc2ncc(S(=O)(=O)c3ccccc3)c(N3CCCC(C)C3)c2cc1OC` (centres unmarked): -7.67%; for `CN(c1ccccc1)S(=O)(=O)c1cccc(NC(=O)CC(C)(C)C)c1`: -11.4%.

`COc1ccc2oc(C(=O)NCCc3ccccc3)c(C)c2c1`: the “hERG current change (%, negative = inhibition) at 10uM” value amounted to 3.17%. Take `Cc1cccc(N2CCN(Cc3nc(-c4cccc(Cl)c4)oc3C)CC2)n1`: the “hERG current change (%, negative = inhibition) at 10uM” value is given as -21%.

Take `CS(=O)(=O)N(CC(=O)N1CCN(Cc2ccccc2)CC1)C1CCCCC1`: the “hERG current change (%, negative = inhibition) at 10uM” value is -14.1%.

Take `CN(c1ccccc1)c1nc(N)c([N+](=O)[O-])c(Nc2ccccc2)n1`: the “hERG current change (%, negative = inhibition) at 10uM” value is 21.4%. For `CCCNC(=O)c1ccc2c(=O)c(O)c(-c3cccc(Br)c3)[nH]c2c1` the value was -13.8%; for `CO/C=C/C#CC1(O)CCN(C)CC1`, 5.64%; for `O=c1[nH]c2ccc(Br)cc2c(-c2ccccc2)c1N1CCOCC1`, 7.5%. The same measure for `COCC(C)NC(=O)c1ccc2c(c1)S(=O)(=O)c1ccccc1C2=O` (centres unmarked): 3.96%. The same measure for `COc1ccc(C(=O)NNC(=O)C(=O)/C=C(\O)c2ccc(C)cc2)cc1`: -8.76%. Consider `CC(C)(C)OC(=O)NCCc1nnc(SCc2c(Cl)cccc2Cl)o1`, for which the “hERG current change (%, negative = inhibition) at 10uM” value is reported as -8.33%.

Turning to `CCc1cc2c(SCC(=O)N(CC)c3c(N)n(Cc4ccccc4)c(=O)[nH]c3=O)ncnc2s1`, the “hERG current change (%, negative = inhibition) at 10uM” value is on record as 8.96%. The same measure for `CCCOc1ccc(C(=O)NC(=S)Nc2nc3ccccc3s2)cc1`: 8.53%.

For `Cn1c(=O)cc(OCCCC(=O)N2CCCCC2)c2ccccc21`, the “hERG current change (%, negative = inhibition) at 10uM” value stood at 3.44%. As to `COc1ccc(OCC(=O)NCCNC(=O)c2ccccn2)cc1`, the “hERG current change (%, negative = inhibition) at 10uM” value is given as 11.6%. In the case of `CC(C)(CO)CNC(=O)CCc1nnc(-c2ccc(-c3ccccc3)cc2)o1`, the “hERG current change (%, negative = inhibition) at 10uM” value was 10.9%. For `CNC(=S)N/N=C/c1c(C(=O)OC)cnn1-c1ccc(F)cc1F` the value was 6.3%.

`Cc1nn(C(C)(C)C)c(NC(=O)c2ccccc2)c1C#N`: the “hERG current change (%, negative = inhibition) at 10uM” value amounted to 14.7%. Consider `COc1ccc(N2CCN(C(=S)Nc3cc(C)ccc3C)CC2)cc1`, for which the “hERG current change (%, negative = inhibition) at 10uM” value is listed as 11.6%. For `O=S(=O)(c1ccccc1)C(/C=N\O)/C=C/c1ccccc1` (centres unmarked) the value was 4.57%; for `CCOC(=O)Cn1c(=O)c2c(nc3n2CCCN3Cc2ccccc2)n(C)c1=O`, -44.9%; for `O=C(N/N=C/C=C/c1ccc([N+](=O)[O-])cc1)c1cccs1`, -13%. For the compound `Cc1nc2sccn2c(=O)c1S(=O)(=O)NCc1ccccc1Cl`, the “hERG current change (%, negative = inhibition) at 10uM” value is -13.5%. The same measure for `O=[N+]([O-])c1ccc(S(=O)(=O)NCCN2CCOCC2)cc1`: 11.2%. The same measure for `COc1ccc(-n2cc(CNC3CCOCC3)c(-c3cccc(F)c3)n2)cc1`: -48.2%; for `N#Cc1ccc(NC(=O)c2sc3cc(C(F)(F)F)cnc3c2-c2cccs2)cc1`: -17.4%. For the compound `O=C(N/N=C/c1ccc(N2CCOCC2)cc1)c1ccccc1OCCOc1ccccc1`, the “hERG current change (%, negative = inhibition) at 10uM” value was -28.9%. For `COc1ccc(-c2[nH]c3ccccc3c2SCCNC(=O)c2ccccc2)cc1` the value was 2.71%; for `CN1CCN(C(CNC(=O)Nc2ccc(Cl)cc2)c2ccc(F)cc2)CC1` (centres unmarked), -56.3%; for `COCCNC(=O)c1c[nH]c2ccc(S(=O)(=O)Nc3ccccc3F)cc2c1=O`, 24.3%.

Take `N#Cc1cc(C(=O)Cc2ccccc2)c[nH]1`: the “hERG current change (%, negative = inhibition) at 10uM” value stood at 12.9%. The same measure for `COc1ccc(NC(=O)COC(=O)CCOc2ccccc2C)cc1Cl`: -14.4%. For `Nc1nnc(SCC(=O)c2ccc3c(c2)NC(=O)CO3)s1` the value was 23.4%.

For `CCN(CC(=O)Nc1ccccc1SC)Cc1nc2ccccc2c(=O)[nH]1`, the “hERG current change (%, negative = inhibition) at 10uM” value is given as -23.9%.

Consider `CCCC(=O)Nc1ccc2c(c1)nc(CCNC(=O)c1ccco1)n2C`, for which the “hERG current change (%, negative = inhibition) at 10uM” value turned out to be 7.48%. On to `CS(=O)(=O)Nc1nc2n(n1)C(c1ccc(F)cc1)CC(c1ccccc1)N2` (centres unmarked), for which the “hERG current change (%, negative = inhibition) at 10uM” value is listed as -4.13%. The same measure for `CCC(C)c1ccc(Nc2ncccc2C#N)cc1` (centres unmarked): -6.52%; for `Cc1cccn2c(=O)c3cc(C(=O)NC4CCS(=O)(=O)C4)sc3nc12` (centres unmarked): 5.89%. The same measure for `CCN1C(=O)/C(=C\N2CCOCC2)SC1=S`: 5.62%; for `COC(=O)c1sc(NC(=O)c2ccncc2)nc1C`: 25.5%. For `O=C(Nc1cc(C(F)(F)F)ccc1-n1cncn1)c1ccc(-c2ccccc2)cc1` the value was 7.64%; for `Cc1cc(C)n2nc(SCc3nnc(SCCCCl)o3)nc2n1`, 2.31%. `COc1ccc(S(=O)(=O)N(C)CC(=O)NCCN2CCOCC2)cc1`: the “hERG current change (%, negative = inhibition) at 10uM” value is on record as 14.7%.

For `COc1ccc(C2CC(c3ccccc3)=NN2C(=O)COC(=O)c2cccc(S(=O)(=O)N(C)C)c2)cc1` (centres unmarked), the “hERG current change (%, negative = inhibition) at 10uM” value is listed as -11%. Consider `CNC(=O)c1[nH]cnc1C(=O)NCC(=O)OCc1ccccc1`, for which the “hERG current change (%, negative = inhibition) at 10uM” value was 13.9%. For `CC(C)(C)c1ccc(CN(Cc2ccccc2)C(c2ccccn2)c2nnnn2C(C)(C)C)cc1` (centres unmarked) the value was 2.44%; for `CC(C)(C)C1=NN=C2c3ccccc3C(=O)C21` (centres unmarked), 14.8%. For `Cc1ccc(OCC(=O)Nc2cc(NC(=O)COc3ccc(C)c(C)c3)cc(C(=O)O)c2)cc1C` the value was 21.2%; for `CSC1=C(C#N)C(=O)NC(c2ccc(Cl)cc2)S1` (centres unmarked), 4.35%. With `O=C(CSc1nnc(NC(=O)C2CCC2)s1)Nc1ccccc1Br`, the “hERG current change (%, negative = inhibition) at 10uM” value is reported as -18%. On to `CCOc1ccc(S(=O)(=O)NCCCN2CCCC2=O)cc1`, for which the “hERG current change (%, negative = inhibition) at 10uM” value is listed as 13.1%.

In the case of `COCCN(CCOC)S(=O)(=O)c1ccc(C(=O)Nc2nc(-c3ccncc3)cs2)cc1`, the “hERG current change (%, negative = inhibition) at 10uM” value was -5.97%. The same measure for `O=C(CCl)NCCNC(=O)c1cc(OCC(F)(F)F)ccc1OCC(F)(F)F`: -4.65%; for `CCOC(=O)C(NC(=O)CC)(Nc1ccc(S(=O)(=O)Nc2onc(C)c2C)cc1)C(F)(F)F` (centres unmarked): 7.89%; for `CCc1cc(CC)c(/C=N/NC(N)=O)c(CC)c1/C=N/NC(N)=O`: 9.25%. In the case of `CCOc1ccc(/C=C2/SC(=S)N(n3c(C)ccc3C)C2=O)cc1`, the “hERG current change (%, negative = inhibition) at 10uM” value turned out to be 8.78%. With `CC(NC(=O)Nc1nnc(C(F)(F)F)s1)(C(F)(F)F)C(F)(F)F`, the “hERG current change (%, negative = inhibition) at 10uM” value was -7.61%. The same measure for `S=c1[nH]c2cc(Br)cnc2[nH]1`: 26.7%; for `COc1ccc(Nc2ncc(C(=O)N3CCN(c4ccccc4OC)CC3)c3ccccc23)cc1`: -4.57%; for `COc1ccc2ccc(OCC(=O)Nc3cc(C)on3)cc2c1`: 4.4%. For `CCOCc1[nH]c(=S)[nH]c(=O)c1Cc1ccc(OC(C)C)cc1` the value was -58.8%; for `O=C(O)c1nn(-c2cccc(C(F)(F)F)c2)ccc1=O`, 21.5%.

For `O=C(c1ccc(Cl)s1)N1CCOCC1`, the “hERG current change (%, negative = inhibition) at 10uM” value is recorded as 13.4%. The same measure for `CC(C)CN1CCN(Cc2cccc3nccnc23)CC1CCO` (centres unmarked): -8.4%. As for `C=CCn1c(SCCCc2ccccc2)nc2c1c(=O)[nH]c(=O)n2C`, the “hERG current change (%, negative = inhibition) at 10uM” value is reported as -26.1%.

On to `Br.O=C(CN1CCSC1=NCc1ccccc1)c1ccccc1`, for which the “hERG current change (%, negative = inhibition) at 10uM” value is given as -23.5%. For the compound `Cc1ccc2nc(SCC(=O)NCCc3ccccc3)nc(=O)n2c1`, the “hERG current change (%, negative = inhibition) at 10uM” value came to 8.42%. In the case of `CCCn1nc(C(=O)NNC(=O)CSC(C)C(=O)Nc2cc(C)on2)c2ccccc2c1=O` (centres unmarked), the “hERG current change (%, negative = inhibition) at 10uM” value is -2.53%.

Turning to `Cc1cc(OC(C)C(=O)NCC(O)c2ccccc2)c2c(C)c(C)c(=O)oc2c1` (centres unmarked), the “hERG current change (%, negative = inhibition) at 10uM” value is given as 7.2%.

Consider `CN1CCN(C(=O)c2cc3c(C(F)(F)F)nn(C)c3s2)CC1`, for which the “hERG current change (%, negative = inhibition) at 10uM” value was 6.05%. With `CC(C)CNC(=O)Nc1ccccc1F`, the “hERG current change (%, negative = inhibition) at 10uM” value was found to be 21.3%. For `COC(CN(C)C(=O)c1ccc2c(c1)NC(=O)c1ccccc1S2)OC` the value was 4.3%; for `CCC1CCc2c(sc(NC(=O)CSc3nc(-c4ccco4)cc(C(F)(F)F)n3)c2C#N)C1` (centres unmarked), 18.4%; for `FC(F)(F)c1cnc(COc2cc(Cl)cc(Cl)c2)c(Cl)c1`, 22.7%.

As to `Cc1ccc(NC(C)C(=O)N/N=C/c2ccc([N+](=O)[O-])s2)cc1` (centres unmarked), the “hERG current change (%, negative = inhibition) at 10uM” value was 8.3%. For `Cn1c(=O)c2c(ncn2CC(=O)N2CCOCC2)n(C)c1=O` the value was -8.32%; for `COc1c(C)cc(C(=O)C2CCCN(C(=O)c3csc(C)n3)C2)cc1C` (centres unmarked), -1.93%. For `C=CCn1c(SCC(=O)Nc2ccc3c(c2)OCO3)nnc1-c1cc(Br)ccc1O` the value was -22.3%.

Source of the values: PMC4336329 (PLoS ONE, 2015).
